Test results taken from ChEMBL document CHEMBL4888484, “Replenishing the malaria drug discovery pipeline: Screening and hit evaluation of the MMV Hit Generation Library 1 (HGL1) against asexual blood stage Plasmodium falciparum ,using a nano luciferase reporter read-out” (2022).
Among all 150,000 compounds or so, about 540 (0.36%) showed an effect of 50% or more. This is one part of the list.

test system: Plasmodium falciparum; assay: Primary screen in NF54 nanoGlo assay, in single point, at 2uM, 72h; a lower Z score goes with more inhibition; assay type: functional, Erythrocyte; conditions: timepoint 72 hour

Question: With `CC1CN(CC(O)Cn2cccn2)CCN1C1CCCC1` (stereo not drawn) as the compound, how does the “% Inhibition” value read?
Answer: The value was -8%.

Question: And the Z score?
Answer: Its Z score is 1.14.

Question: For `COCC(=O)N[C@H]1CCN2C(=O)c3ccccc3NC(=O)[C@@H]2C1`, which “% Inhibition” value is on record?
Answer: The value was -8%.

Question: What about the Z score of the same compound?
Answer: Its Z score is 1.02.

Question: For `O=C([C@@H]1CCCc2[nH]ncc21)N1CC(c2cccc(Cl)c2)C1`, which “% Inhibition” value is on record?
Answer: Its value is -3%.

Question: What about the Z score of the same compound?
Answer: The Z score was 0.49.

Question: What does the source list for `O=C(CCc1ccc(OC(F)F)cc1)N1CCc2nc[nH]c(=O)c2C1`?
Answer: % Inhibition: 0%; Z score: 0.07

Question: What does the source list for `O=S(=O)(c1cccnc1)N1CCC[C@]2(CC=CCC2)C1`?
Answer: % Inhibition: -2%; Z score: 0.21

Question: Which “% Inhibition” value does the source give for `Cc1cccc(OC[C@]2(CNC(=O)c3cc(C)on3)C[C@@H](O)[C@@H](O)C2)n1` here?
Answer: The value was 11%.

Question: And the Z score?
Answer: The Z score was -1.3.

Question: For `CN(C)c1cc(C#N)cc(C(=O)NCc2cc(C(F)(F)F)[nH]n2)c1`, which “% Inhibition” value is on record?
Answer: The value was -4%.

Question: And the Z score?
Answer: Its Z score is 0.57.

Question: With `C[C@@H](c1cccs1)N(C)Cc1cc(CN2CCCC2)cs1` as the compound, how does the “% Inhibition” value read?
Answer: The value was -12%.

Question: What about the Z score of the same compound?
Answer: The Z score was 1.33.

Question: With `CC/C=C/CC(=O)N1CCC2(CCN(Cc3cccnc3)CC2)[C@@H](CO)C1` as the compound, how does the “% Inhibition” value read?
Answer: Its value is -9%.

Question: And the Z score?
Answer: Its Z score is 1.58.

Question: How did the “% Inhibition” value turn out when `Cc1noc(C)c1CCC(=O)N[C@H]1CCCC[C@@H]1OCc1ccccc1` was run?
Answer: Its value is 5%.

Question: And the Z score?
Answer: The Z score was -0.76.

Question: `O=C(c1cnn[nH]1)N1CCCN(Cc2ccncc2)CC1` was tested. Which “% Inhibition” value did it give?
Answer: Its value is -13%.

Question: And the Z score?
Answer: The Z score was 2.31.

Question: Which results are given for `O=C1NCCN2CCN(S(=O)(=O)c3ccccc3F)CC[C@@H]12`?
Answer: % Inhibition: 2%; Z score: -0.35

Question: Which results are given for `CCc1ccccc1S(=O)(=O)N[C@H]1CCN(c2ccc(C)cc2)C1=O`?
Answer: % Inhibition: 0%; Z score: -0.05

Question: How did the “% Inhibition” value turn out when `N#CC1(C#N)C(c2ccc(Cl)cc2)C1(C#N)C#N` was run?
Answer: Its value is 44%.

Question: What about the Z score of the same compound?
Answer: The Z score was -1.55.

Question: Which “% Inhibition” value does the source give for `Cc1sc(-c2nc(-c3cccc(F)c3)no2)cc1S(=O)(=O)N1CCN(c2ccccc2)CC1` here?
Answer: The value was -4%.

Question: What about the Z score of the same compound?
Answer: Its Z score is 0.5.

Question: `O=C(NCc1ccccn1)c1ccc(S(=O)(=O)N2CCCCCC2)cc1` was tested. Which “% Inhibition” value did it give?
Answer: Its value is -5%.

Question: And the Z score?
Answer: Its Z score is 0.67.

Question: Which results are given for `O[C@@H](CNC1CCN(C2CCC2)CC1)c1cc(F)ccc1F`?
Answer: % Inhibition: -11%; Z score: 1.64

Question: `Cc1noc(-c2csc(C(=O)NCCCN3CCCCC3)n2)n1` was tested. Which “% Inhibition” value did it give?
Answer: Its value is 2%.

Question: And the Z score?
Answer: Its Z score is -0.37.

Question: `COc1ccccc1CNC(=O)c1ccc2c(c1)N(C)C(=O)c1ccccc1O2` was tested. Which “% Inhibition” value did it give?
Answer: The value was -4%.

Question: What about the Z score of the same compound?
Answer: The Z score was 0.55.

Question: `Cc1cc(CN2CCc3ccccc3C2)on1` was tested. Which “% Inhibition” value did it give?
Answer: The value was -3%.

Question: What about the Z score of the same compound?
Answer: The Z score was 0.25.

Question: What does the source list for `COC1CCC2OCCN(C(=O)N(C)c3ccc(F)cc3)C2C1` (stereo not drawn)?
Answer: % Inhibition: 1%; Z score: -0.16

Question: Which results are given for `Cc1cnn(CC(=O)Nc2ncccc2CNC(=O)OC(C)(C)C)c1`?
Answer: % Inhibition: 17%; Z score: -2.14

Question: Which “% Inhibition” value does the source give for `O=c1n(CCCc2nc(-c3ccccc3)no2)nc2ccccn12` here?
Answer: Its value is -2%.

Question: And the Z score?
Answer: Its Z score is 0.44.

Question: What does the source list for `CNC(=O)Cc1noc(-c2cnn(-c3ccccc3)n2)n1`?
Answer: % Inhibition: 16%; Z score: -1.85

Question: What does the source list for `O=C(CCNC(=O)c1ccc(F)cc1)NCCN1CCCC1`?
Answer: % Inhibition: 3%; Z score: -0.39

Question: Which results are given for `O=S(=O)(c1ccc(F)cc1)N1CC(F)(F)C[C@H]1CN1CCc2ccccc2C1`?
Answer: % Inhibition: -15%; Z score: 2.64

Question: For `CCOC1CC(NC(=O)C2(C#N)CCCC2)C1(C)C` (stereo not drawn), which “% Inhibition” value is on record?
Answer: The value was -5%.

Question: What about the Z score of the same compound?
Answer: The Z score was 0.69.

Question: What does the source list for `CCN1CCCN(C(=O)N[C@H]2CCC[C@H]2F)CC1=O`?
Answer: % Inhibition: -4%; Z score: 0.77

Question: How did the “% Inhibition” value turn out when `COc1cc(CN[C@H]2CCc3c(cccc3OC)C2)ccn1` was run?
Answer: Its value is -1%.

Question: And the Z score?
Answer: The Z score was 0.12.

Question: What does the source list for `CNC(=O)C(CC(C)C)NC(=O)[C@H](O)c1ccccc1` (stereo partly drawn)?
Answer: % Inhibition: -3%; Z score: 0.61

Question: Which results are given for `CCC(C)(C)c1ccc(OCCN(C)C)cc1`?
Answer: % Inhibition: 1%; Z score: -0.18

Question: Which “% Inhibition” value does the source give for `CCCc1cc(CNC2CCN(C(=O)c3cccs3)CC2)on1` here?
Answer: Its value is -6%.

Question: What about the Z score of the same compound?
Answer: Its Z score is 1.06.

Question: `COCCn1cncc1CNc1cc([C@H]2CCOC2)ncn1` was tested. Which “% Inhibition” value did it give?
Answer: The value was -4%.

Question: What about the Z score of the same compound?
Answer: Its Z score is 0.82.

Question: With `CCc1noc(Cc2c(C)nn(-c3ccccc3)c2C)n1` as the compound, how does the “% Inhibition” value read?
Answer: Its value is -5%.

Question: And the Z score?
Answer: Its Z score is 0.89.

Question: `CNc1snc(C)c1C(=O)OCC(=O)N1CCCCCCC1` was tested. Which “% Inhibition” value did it give?
Answer: Its value is -8%.

Question: And the Z score?
Answer: The Z score was 1.1.

Question: Which “% Inhibition” value does the source give for `CN(C)C(=O)c1ccc(F)cc1Br` here?
Answer: The value was -2%.

Question: And the Z score?
Answer: Its Z score is 0.29.

Question: With `CCC(NC[C@H](O)CC)c1c(C)noc1C` (stereo partly drawn) as the compound, how does the “% Inhibition” value read?
Answer: The value was -11%.

Question: What about the Z score of the same compound?
Answer: Its Z score is 1.37.

Question: `CCN(CC)c1nc2c(c(O)nc(=O)n2C)n1CCC(C)C` was tested. Which “% Inhibition” value did it give?
Answer: Its value is -7%.

Question: And the Z score?
Answer: Its Z score is 0.89.

Question: Which “% Inhibition” value does the source give for `O=C(NCCN1Cc2ccccc2O[C@H](c2ccccc2)C1)c1cnsn1` here?
Answer: The value was 17%.

Question: And the Z score?
Answer: Its Z score is -2.18.

Question: With `COc1ccc([C@H]2[C@H](C(=O)NCC3CC3)CCC(=O)N2C)cc1` as the compound, how does the “% Inhibition” value read?
Answer: The value was 31%.

Question: And the Z score?
Answer: The Z score was -3.53.

Question: Which results are given for `COc1ccc(CN(C(=O)OC(C)(C)C)C2CCC(C(=O)N3CCO[C@@H](COc4ccccc4)C3)CC2)cc1C` (stereo partly drawn)?
Answer: % Inhibition: -2%; Z score: 0.25

Question: With `CC[C@@H](C(=O)Nc1c(C)nc(N2CCCC2)nc1C)c1ccccc1` as the compound, how does the “% Inhibition” value read?
Answer: Its value is 3%.

Question: What about the Z score of the same compound?
Answer: The Z score was -0.45.

Question: `Cc1cccc(-c2nnc3c4ccccc4nc(N4CCN(C(=O)c5ccc(F)cc5F)CC4)n23)c1` was tested. Which “% Inhibition” value did it give?
Answer: The value was -11%.

Question: And the Z score?
Answer: Its Z score is 1.38.

Question: How did the “% Inhibition” value turn out when `COc1ccccc1[C@@]1(CC(=O)N(C)Cc2ccccc2)CC(=O)N(C2CCCC2)C1=O` was run?
Answer: Its value is -1%.

Question: And the Z score?
Answer: Its Z score is 0.3.

Question: How did the “% Inhibition” value turn out when `COc1ccc([C@@H](C)CN2CCC(n3cccn3)CC2)cc1` was run?
Answer: The value was -12%.

Question: And the Z score?
Answer: Its Z score is 1.35.

Question: `CC[C@H](N)C(=O)N(C)Cc1ccccc1F` was tested. Which “% Inhibition” value did it give?
Answer: The value was -34%.

Question: And the Z score?
Answer: Its Z score is 3.98.

Question: What does the source list for `CN(CC1CCCCC1)C(=O)CN1CCOC(C)(C)C1`?
Answer: % Inhibition: 8%; Z score: -1.3

Question: Which results are given for `COc1ccc([C@@H](O)CN2CCN(c3ncccn3)CC2)cc1`?
Answer: % Inhibition: -19%; Z score: 1.92

Question: What does the source list for `O=C(COc1ccccc1)NC(c1ccc(F)cc1F)[C@H]1C[C@@H](O)C1` (stereo partly drawn)?
Answer: % Inhibition: 1%; Z score: -0.26
